Data: publication PMC4260934 (Nitric oxide : biology and chemistry / official journal of …, 2014)
Like-named read-outs stand apart in the source and are kept apart here. Blank lines part the entries; values can stand above or below the molecule they belong to.

Key:
[1] = target: human AO (Homo sapiens, UniProt Q06278); conditions: human liver cytosol, DACA 6 μM
[2] = target: XOR; conditions: cited from earlier work
[3] = target: xanthine oxidase (HS6B-XO) (Bos taurus, UniProt P80457); assay: XO-catalyzed nitrite reduction to NO
[4] = target: xanthine oxidase (Bos taurus, UniProt P80457); assay: XO-catalyzed xanthine oxidation to uric acid

UniProt P80457, sequence (P80457 whole entry): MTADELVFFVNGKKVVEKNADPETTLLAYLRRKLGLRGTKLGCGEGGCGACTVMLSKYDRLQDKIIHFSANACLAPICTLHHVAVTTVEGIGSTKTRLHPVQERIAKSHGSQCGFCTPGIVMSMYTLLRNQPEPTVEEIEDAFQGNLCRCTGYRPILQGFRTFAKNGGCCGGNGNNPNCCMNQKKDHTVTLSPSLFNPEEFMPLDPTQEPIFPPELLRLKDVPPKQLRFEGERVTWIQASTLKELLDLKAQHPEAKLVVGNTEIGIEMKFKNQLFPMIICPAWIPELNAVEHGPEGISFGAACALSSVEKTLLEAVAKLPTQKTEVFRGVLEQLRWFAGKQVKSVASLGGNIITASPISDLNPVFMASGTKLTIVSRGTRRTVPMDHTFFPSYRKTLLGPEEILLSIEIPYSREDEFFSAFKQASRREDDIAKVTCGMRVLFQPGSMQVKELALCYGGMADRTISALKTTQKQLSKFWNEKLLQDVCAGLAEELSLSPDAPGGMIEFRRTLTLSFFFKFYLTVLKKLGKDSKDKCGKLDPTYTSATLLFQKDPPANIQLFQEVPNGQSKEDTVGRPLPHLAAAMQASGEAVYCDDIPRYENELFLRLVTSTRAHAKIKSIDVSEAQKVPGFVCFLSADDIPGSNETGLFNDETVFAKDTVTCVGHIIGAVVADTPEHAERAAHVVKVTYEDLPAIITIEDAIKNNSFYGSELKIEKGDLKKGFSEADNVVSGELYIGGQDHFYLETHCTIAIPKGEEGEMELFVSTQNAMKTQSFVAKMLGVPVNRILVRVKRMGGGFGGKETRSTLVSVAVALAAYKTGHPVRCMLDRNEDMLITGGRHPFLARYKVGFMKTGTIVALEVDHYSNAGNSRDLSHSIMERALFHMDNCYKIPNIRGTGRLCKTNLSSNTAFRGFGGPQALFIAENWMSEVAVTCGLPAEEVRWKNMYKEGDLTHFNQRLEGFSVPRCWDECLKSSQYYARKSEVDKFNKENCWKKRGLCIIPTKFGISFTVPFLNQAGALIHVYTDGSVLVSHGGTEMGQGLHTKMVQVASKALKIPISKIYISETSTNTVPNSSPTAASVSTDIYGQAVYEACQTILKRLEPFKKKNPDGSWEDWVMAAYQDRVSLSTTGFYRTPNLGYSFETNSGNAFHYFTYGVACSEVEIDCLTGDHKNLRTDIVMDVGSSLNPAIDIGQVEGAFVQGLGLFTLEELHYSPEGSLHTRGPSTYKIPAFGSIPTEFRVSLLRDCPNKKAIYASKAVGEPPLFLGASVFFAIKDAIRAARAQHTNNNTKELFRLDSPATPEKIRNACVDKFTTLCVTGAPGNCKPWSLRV
UniProt Q06278, sequence (Q06278 whole entry): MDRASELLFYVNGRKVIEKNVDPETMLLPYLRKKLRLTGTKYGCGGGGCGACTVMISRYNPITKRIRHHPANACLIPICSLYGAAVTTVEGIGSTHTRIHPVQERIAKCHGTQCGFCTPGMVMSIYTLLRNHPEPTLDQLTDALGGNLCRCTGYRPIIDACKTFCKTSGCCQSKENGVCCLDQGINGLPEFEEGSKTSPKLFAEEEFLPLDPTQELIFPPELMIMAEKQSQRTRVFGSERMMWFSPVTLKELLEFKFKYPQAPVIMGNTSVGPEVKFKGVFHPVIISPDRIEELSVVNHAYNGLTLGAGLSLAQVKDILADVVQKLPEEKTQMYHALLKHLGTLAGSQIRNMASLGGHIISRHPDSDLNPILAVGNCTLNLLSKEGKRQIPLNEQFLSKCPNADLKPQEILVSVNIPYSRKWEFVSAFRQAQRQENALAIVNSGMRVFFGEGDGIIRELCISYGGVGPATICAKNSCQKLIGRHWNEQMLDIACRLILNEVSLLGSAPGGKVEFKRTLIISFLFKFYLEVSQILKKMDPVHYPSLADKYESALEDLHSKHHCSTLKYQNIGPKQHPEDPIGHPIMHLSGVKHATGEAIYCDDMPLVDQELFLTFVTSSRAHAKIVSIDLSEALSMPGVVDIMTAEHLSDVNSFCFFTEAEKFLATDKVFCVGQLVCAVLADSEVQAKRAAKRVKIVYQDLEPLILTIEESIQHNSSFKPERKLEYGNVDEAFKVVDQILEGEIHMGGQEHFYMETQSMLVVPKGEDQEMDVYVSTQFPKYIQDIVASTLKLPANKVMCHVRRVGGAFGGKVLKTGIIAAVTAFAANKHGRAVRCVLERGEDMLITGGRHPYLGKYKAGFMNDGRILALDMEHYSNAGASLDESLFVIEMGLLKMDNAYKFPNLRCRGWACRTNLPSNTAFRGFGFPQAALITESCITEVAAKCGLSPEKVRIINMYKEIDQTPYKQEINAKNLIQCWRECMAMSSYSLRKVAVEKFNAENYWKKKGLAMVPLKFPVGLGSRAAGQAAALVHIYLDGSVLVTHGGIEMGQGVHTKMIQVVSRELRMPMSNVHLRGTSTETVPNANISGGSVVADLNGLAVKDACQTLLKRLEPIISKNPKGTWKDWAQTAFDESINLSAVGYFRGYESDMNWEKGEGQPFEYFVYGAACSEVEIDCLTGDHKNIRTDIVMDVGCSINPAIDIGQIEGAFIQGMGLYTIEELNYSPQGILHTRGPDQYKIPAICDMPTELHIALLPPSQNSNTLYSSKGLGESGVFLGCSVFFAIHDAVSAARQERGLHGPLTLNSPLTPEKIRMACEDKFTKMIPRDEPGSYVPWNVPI

Structure (SMILES): Cc1nc(-c2ccc(OCC(C)C)c(C#N)c2)sc1C(=O)O [febuxostat]
concentration for complete inhibition of AO [1]: over 1 mM | Ki ([2]; read-out: Ki, inhibition of XOR): 0.96 nM

Structure (SMILES): Oc1ncnc2[nH]ncc12 [allopurinol]
Ki ([2]; read-out: Ki, inhibition of XO): 700 nM

EC50 [3]: 60 nM | effect on XO-catalyzed uric acid production [4]: no effect
Structure (SMILES): CC1=CC(=O)c2ccccc2C1=O [menadione]
